B1: hz143G03 (N61Q) ThioBridge ®-Glu[-Glu(OH)-Val-Cit-PAB-DMEA-PNU159682]-PEG(24) (conjugate)
heavy: QVQLVQSGAEVKKPGSSVKVSCKASGYTFTNYYIHWVRQAPGQGLEWMGKIGPGSGSPYYQGMFKDRVTITADESTSTAYMELSSLRSEDTAVYYCARWLLPFDYWGQGTLVTVSS[human IgG1 constant region not printed]
light: EIVLTQSPGTLSLSPGERATLSCRASSSVNYMHWYQQKPGQAPRLLIYATSILASGIPDRFSGSGSGTDYTLTISRLEPEDFAVYYCQQFSSDPLTFGGGTKVEIKRTVAAPSVFIFPPSDEQLKSGTASVVCLLNNFYPREAKVQWKVDNALQSGNSQESVTEQDSKDSTYSLSSTLTLSKADYEKHKVYACEVTHQGLSSPVTKSFNRGEC
modifications: non-natural residues
B2: h14A10 ThioBridge ®-Glu[-Glu(OH)-Val-Cit-PAB-DMEA-PNU159682]-PEG(24) (conjugate)
heavy: EVQMVESGGGLVQPGGSLRLSCAAPGFIFSSYNMNWVRQAPGKGLEWVSYISSSSSTTYYADSVKGRFTISRDNAKNSLYLQMNSLRDEDTAVYYCASLYSGYDYYYYYGMDVWGQGTTVTVSS[human IgG1 constant region not printed]
light: DIVMTQTPLSSPVSLGQPASISCRSSQSLVHSDGNTYLSWLQQRPGQPPRVLIYKISKRFSGVPDRFSGSGAGTDFTLKISRVEAEDVGVYYCMQATQFPFTFGPGTKVDIKRTVAAPSVFIFPPSDEQLKSGTASVVCLLNNFYPREAKVQWKVDNALQSGNSQESVTEQDSKDSTYSLSSTLTLSKADYEKHKVYACEVTHQGLSSPVTKSFNRGEC
modifications: non-natural residues

Assay: ADC analytical characterization (LC-MS, UV, SEC, HIC, SDS-PAGE, endotoxin)
Format: physicochemical
Conditions: for % Purity (SEC), monomeric: 280 nm; for % Purity (SEC), monomeric / % free reagent related species: SEC; for % free reagent related species: 495 nm; for Average DAR (UV): UV absorbance
Protocol: LC-MS analysis. LC-MS analysis was carried out using a Waters XEVO G2S TOF mass spectrometer and a POROSHELL 300SB C3 column (2.1×12.5 mm, 5 μm) connected to a Waters Acquity H Class UPLC system. The mobile phase was buffer A (0.1% formic acid in water). A gradient (2.5 min 10% B, 10-80% B gradient in 3.5 min) was applied using Buffer B (acetonitrile, 0.1% formic acid) at a flow rate of 0.4 mL/min. The column was maintained at 60° C. throughout the analysis. ADCs were analyzed after dilution to 0.1 mg/mL. 10 μL of ADC solution were injected for analysis. Average DAR was calculated as the weighted average of the observed DAR species based on main glycoforms signal intensity (SI) on the deconvoluted m/z spectra. Average MW was calculated as the weighted average of the observed DAR species main glycoforms MWs on the deconvoluted m/z spectra, as follows:
SEC analysis. Analytical SEC (size exclusion chromatography) was carried out using an ACQUITY UPLC BEH SEC column (4.6 mm×15 cm, 200 A, 1.7 μm) and guard column (4.6 mm×3 cm), connected to a Dionex Ultimate 3000 UPLC system. The mobile phase was 0.2 M potassium phosphate buffer, pH 6.8, 0.2 M potassium chloride, 15% (v/v) isopropanol. The flow rate was kept constant at 0.35 mL/min. The column was maintained at 30° C. throughout the analysis. The analysis was carried out in a 10 min isocratic elution with UV detection at 280 nm and 495 nm. 10 μg of ADC were injected for analysis. The percentage of high molecular weight (HMW) species was calculated by comparing the peak area corresponding to HMW species at 280 nm to total peak area corresponding to HMW and monomeric species at 280 nm. The percentage of free reagent related species was calculated by comparing the peak area corresponding to free reagent related species at 495 nm to total peak area corresponding to HMW and monomeric species at 495 nm.
HIC analysis. Analytical HIC was carried out using a TOSOH Bioscience TSKgel Butyl-NPR column (4.6 mm×3.5 cm, 2.5 μm), connected to a Dionex Ultimate 3000 UPLC system. The mobile phase was buffer A: 1.5 M ammonium sulfate, 50 mM sodium phosphate, pH 7.0. […] The column was maintained at 30° C. throughout the analysis. The analysis was carried with UV detection at 280 nm. 10 μg of ADC were injected per analysis.
SDS-PAGE analysis. SDS-PAGE analysis was carried out using NuPAGE® 4-12% Bis-Tris gels (Invitrogen) under non-reducing conditions with MES buffer. Prior to analysis, each sample was incubated for 1 h at 40° C. in 10% SDS solution. For analysis, 1 μg of ADC sample (based on protein) was loaded onto the gel per lane. Electrophoresis was carried out at 200 V for 35 min. The gels were stained with InstantBlue™ (Expedeon) for protein detection and analyzed using a ChemiDoc™ imaging system (Bio-Rad).
Concentration and average DAR determination by UV absorbance. The concentration and average DAR of the conjugates were determined by UV absorbance at 280 nm (A280) and at a wavelength λ corresponding to a maximum of absorbance for the linker-payload (Aλ) using a Nanodrop 2000 spectrophotometer. Measurements were taken in triplicate and the average values used for calculations. The average DAR was calculated using the following formula: […]
Endotoxin level determination method. The EndoSafe®-PTST™ platform (Charles River) was used to determine the level of endotoxin. EndoSafe®-PTST™ is a chromogenic kinetic test system aligned with USP <85> and Pharm Eur 2.6.14 that provides quantitative Limulus Amebocyte Lysate (LAL) results. The EndoSafe®-PTST™ utilizes LAL reagents in FDA-licensed disposable test cartridges which are pre-loaded with all the reagents required to perform a LAL test. The EndoSafe®-PTST™ mimics licensed LAL kinetic chromogenic methodology by measuring color intensity directly related to the endotoxin concentration in a sample; the concentrations are calculated against an internal standard curve (0.01-1.00 EU/mL) associated with the lot number of the cartridges.

Molecule	Endotoxin	Average DAR (LC-MS)	% Purity (SEC), monomeric	% free reagent related species	Average DAR (UV)
B1	1.5 EU/mg	Average DAR: 4.4	96.7% monomeric See FIG. 19H	1.2 See FIG. 19E %	Average DAR: 3.9
B2	chromatogram 1.1 EU/mg	Average DAR: 4.1	95.4% monomeric	chromatogram 2.5%	Average DAR: 4.1

— patent US20250340636A1, “ANTIBODIES TARGETING L1CAM AND USES THEREOF” (MEMORIAL SLOAN-KETTERING CANCER CENTER, priority 2023, published 2025)
